56 compounds from PubChem BioAssay AID463173 (ICCB-Longwood Screening Facility, Harvard Medical School, 2010) can be followed below.

About 4,300 (8.3%) of roughly 52,000 compounds were called active. No stated cut-off is given here; in the data, active means survival mostly below about 52% (no sharp cut-off); inactive means mostly above about 56%. Some of the results follow.

For this experiment, the system named is DeltatarO mutant. The experiment in a line: growth inhibition of S. aureus wild type versus tarO mutant, primary screen, teichoic acid synthesis inhibitors, RN4220, OD600 (AID 463173). The conditions noted are these: OD600, 18 h, active compounds read low, screened at 18.75 µg/mL (by protocol).
As for `CNS(=O)(=O)c1ccc(OC)c(-c2nnc3c4ccccc4c(C)nn23)c1`, the survival is inactive: 86%.

For the compound `O=C(CSc1ncc2c(n1)-c1ccccc1N(Cc1ccc(F)cc1)S2(=O)=O)c1ccc(Cl)cc1`, the survival was inactive: 89%.

As to `CCc1cc2c(cc3c(=O)n(CC(=O)N4CCN(c5cc(Cl)ccc5C)CC4)ncn32)s1`, the survival was inactive: 58%.

As to `CCOCCOC(=O)c1ccc(NC(=O)/C=C/c2ccc(OC)c(OC)c2)cc1`, the survival was inactive: 137%.

On to `Cc1ccc(S(=O)(=O)c2cn(C)c3cc(N4CCN(C)CC4)c(F)cc3c2=O)cc1`, for which the survival was inactive: 95%.

`CCCc1c(O)nc(SCC(=O)N(CC)CC)[nH]c1=O`: the survival was inactive: 68%.

Regarding `Cc1cccc(C)c1-n1ncc(C(=O)Nc2ccc3c(c2)OCCO3)c1C1CCN(C(=O)OC(C)(C)C)CC1`, the survival was inactive: 96%.

Regarding `COc1ccc(Nc2c(-c3cc(Br)ccc3O)nc3ncccn23)cc1OC`, the survival is inactive: 63%.

For `COc1ccccc1C(=O)Nc1cc2c(cc1N1CCCCC1)n(C)c(=O)n2C`, the survival was inactive: 78%.

Regarding `COc1ccc(N2CCN(CCCNC(=O)C3COc4ccc(OC)cc4C3)CC2)cc1` (stereo unspecified), the survival is inactive: 93%.

Turning to `CCc1cccc2c(-c3ccccc3)nc(SCC(=O)Nc3ccccc3)nc12`, the survival is inactive: 89%.

As to `COc1ccc2c(CNCc3ccc(Cl)cc3)c(C(=O)O)n(Cc3ccccc3C)c2c1`, the survival is inactive: 97%.

Turning to `Cc1cccc(Nc2nnc(-n3nc(C)cc3C)c3ccccc23)c1`, the survival was inactive: 125%.

In the case of `O=C(Cn1cc(SCc2ccc(C(F)(F)F)cc2)c2ccccc21)N1CCCCC1`, the survival was inactive: 81%.

On to `CC(CC(=O)NCc1ccc(Cl)cc1)CC1=NS(=O)(=O)c2ccccc2N1` (stereo unspecified), for which the survival was inactive: 84%.

On to `COc1cc(NC(=O)c2cc(-c3ccc4c(c3)OCO4)on2)cc(OC)c1OC`, for which the survival was inactive: 115%.

With `COc1ccc(-c2cc(C)no2)cc1S(=O)(=O)NCc1ccc(OC(C)C)cc1`, the survival was inactive: 82%.

On to `CC(=O)c1ccc(N2CCN(c3nc4c(S(=O)(=O)c5ccccc5)nnn4c4ccc(Cl)cc34)CC2)cc1`, for which the survival was inactive: 102%.

As to `COc1ccc(S(=O)(=O)c2cn(C)c3cc(N4CCCCC4)c(F)cc3c2=O)cc1`, the survival is inactive: 80%.

`COc1ccc(NC(=O)c2cnn(-c3ccc(C)cc3)c2-n2cccc2)cc1Cl`: the survival is inactive: 69%.

Consider `CCOC(=O)c1noc2ncnc(N(CCC(=O)OC)c3ccccc3)c12`, for which the survival was inactive: 117%.

`CCOC(=O)c1noc2ncnc(Nc3ccc(C)c(F)c3)c12`: the survival is inactive: 91%.

For `CN1CCN(CCCNC(=O)Cn2c(-c3cccs3)cc3ccccc32)CC1`, the survival is inactive: 81%.

For `Cc1ccc2c(c1)sc1nc(=O)n(-c3ccc(Cl)cc3)c(=O)n12`, the survival is inactive: 59%.

With `COc1cc(N(C(=O)Cn2nnc3ccccc32)C(C(=O)NCC2CCCO2)c2ccc(F)cc2)ccc1-n1cnnn1` (stereo unspecified), the survival is inactive: 105%.

`COc1ccc(NC(=O)C2=C(C)Nc3nc(SCc4ccccc4C)nn3C2c2ccc(Br)cc2)cc1` (stereo unspecified): the survival was inactive: 80%.

As to `N#Cc1c(NC(=O)c2ccccc2)oc(-c2ccccc2)c1-c1ccccc1`, the survival is inactive: 56%.

For `Cc1cccc(NC(=O)C2CCN(S(=O)(=O)c3cccc4nsnc34)CC2)c1C`, the survival is inactive: 88%.

As for `Cc1cc(C)cc(NC(=O)CSc2nccn2-c2ccccc2)c1`, the survival was inactive: 124%.

Turning to `COc1ccc2[nH]cc(NC(=O)NCCO)c(=O)c2c1`, the survival is inactive: 97%.

As for `O=C(NC1CC(=O)N(c2ccccc2)C1)C1CCCCC1` (stereo unspecified), the survival is inactive: 126%.

Take `Cc1cc(Br)ccc1NC(=O)c1cc2c(=O)n(C)c3cc(Cl)ccc3c2s1`: the survival was inactive: 80%.

Turning to `CCOC(=O)c1c(C)oc2ccc(N(C(=O)Oc3ccccc3)S(=O)(=O)c3ccccc3)cc12`, the survival was inactive: 69%.

Turning to `CCN1CCN(C(c2ccc(OC)cc2)c2c(O)cc(C)n(CCOC)c2=O)CC1` (stereo unspecified), the survival is inactive: 70%.

Consider `COc1ccc(C(CNC(=O)COc2ccc(C)cc2)N2CCCCC2)cc1` (stereo unspecified), for which the survival was inactive: 104%.

With `CN(C(=O)Cn1c(=O)n(CCCS(=O)(=O)C2CCCCC2)c(=O)c2ccccc21)c1ccccc1`, the survival is inactive: 84%.

Take `COc1ccccc1NC(=O)c1c(NCc2sccc2C)sc2c1CCCCC2`: the survival was inactive: 85%.

`CN(C(=O)c1cc(-c2ccccc2O)on1)c1ccccc1`: the survival was active: 40%.

Turning to `CCC1=NN(C(=O)c2ccccc2O)C(O)(c2ccccc2)C1` (stereo unspecified), the survival was active: 1%.

As for `CCCCOc1c(Cl)cc(C(=O)N(Cc2ccc(C)o2)C2CCS(=O)(=O)C2)cc1Cl` (stereo unspecified), the survival was inactive: 69%.

On to `CC(=O)N(CCCCN1C(=O)c2ccccc2C1=O)c1ccc(Cl)cc1`, for which the survival was inactive: 80%.

For the compound `Cc1cc(C)c2oc(C(=O)N(Cc3ccc(F)cc3)C3CCS(=O)(=O)C3)cc(=O)c2c1` (stereo unspecified), the survival was inactive: 108%.

With `CSc1ccc(CCNc2ncnc3onc(C)c23)cc1`, the survival was inactive: 98%.

Turning to `COC(=O)c1ccc(Cl)cc1NC(=O)N1CC(C)Oc2ccccc21` (stereo unspecified), the survival is inactive: 95%.

Take `Cc1ccc(-n2nc3c(=O)n(CC(=O)Nc4ccccc4F)nc(C)c3c2C)c(C)c1`: the survival is inactive: 88%.

As to `CCOC(=O)c1ccc(NC(=O)c2cc3cc(C)ccc3n2C)cc1`, the survival is inactive: 69%.

For `Cc1cc(NS(=O)(=O)c2ccc(NC(=O)COc3ccc(Cl)cc3)cc2)nc(C)n1`, the survival is inactive: 54%.

Take `Cc1ccc(NC(=O)Nc2nnc(N(C)Cc3ccccc3)s2)cc1`: the survival is inactive: 82%.

Consider `Cc1ccc2cc(CN(CCO)C(=O)NCc3ccccc3)c(=O)[nH]c2c1`, for which the survival is inactive: 75%.

`COc1ccc2c(CNCc3ccc(C)o3)c(C(=O)O)n(Cc3ccccc3)c2c1`: the survival was inactive: 80%.

As to `O=C(Cn1c(=O)oc2ccccc21)NCc1cccc(Cl)c1`, the survival is inactive: 100%.

On to `CCOc1cc(-c2nc(-c3ccc(-c4ccc(C)cc4)nc3OC)no2)cc(OCC)c1OCC`, for which the survival is active: 69%.

Consider `COc1ccc(C2C=C(c3ccccc3)Nc3nc(NC(=O)c4ccc(C)cc4)nn32)cc1` (stereo unspecified), for which the survival was active: 44%.

With `Cc1cc(C)cc(N(CC(=O)Nc2cccc(C)c2C)S(=O)(=O)c2c(C)[nH]c(=O)[nH]c2=O)c1`, the survival was inactive: 75%.

Regarding `Cc1cccc(CCNC(=O)c2cc3ccccn3n2)c1`, the survival is inactive: 78%.

For `COc1ccc(Cl)cc1NC(=O)Cn1c2ncccc2c(=O)n1-c1ccc(C)c(C)c1`, the survival is inactive: 85%.
